The other results are listed elsewhere or left out.
Each compound was assayed on HSkMC (human skeletal muscle cells) (assay: cytotoxicity call (relative viability < 0.9)). Details: 10 µM.

| SMILES | cytotoxicity call |
| --- | --- |
| Cc1noc(C)c1S(=O)(=O)Nc1ccc2c(c1)C(=O)N([C@H](C)CO)C[C@H](C)[C@H](CN(C)S(C)(=O)=O)OCCCC[C@@H](C)O2 | inactive |
| COC(=O)C[C@@H]1CC[C@H]2[C@@H](COC[C@H](O)CN2S(=O)(=O)c2ccccc2C)O1 | inactive |
| C[C@@H]1CN([C@@H](C)CO)C(=O)c2cc(NC(=O)c3ccccc3)ccc2O[C@@H](C)CCCCO[C@@H]1CN(C)C(=O)NC1CCCCC1 | inactive |
| CN(C)[C@H]1CS(=O)(=O)C[C@@H]1N(C)C | inactive |
| CO[C@H]1CN(C)C(=O)c2ccc(NC(=O)Nc3cccc(Cl)c3)cc2OC[C@H](C)N(C(=O)Nc2c(C)noc2C)C[C@@H]1C | inactive |
| CCCCCCCCC=CCCCCCCCC(=O)[O-].[NH3+]CCO | inactive |

The compounds below were run on HepG2 (assay: cytotoxicity call (relative viability < 0.9)). Details: 10 µM.

| SMILES | cytotoxicity call |
| --- | --- |
| C[C@@H]1CCCCO[C@H](CN(C)Cc2ccncc2)[C@@H](C)CN([C@H](C)CO)C(=O)c2cc(NC(=O)CCCCCC(=O)Nc3ccccc3N)ccc2O1 | inactive |
| Cc1cc(N)c2ccccc2[n+]1CCCCCCCCCC[n+]1c(C)cc(N)c2ccccc21.[Cl-].[Cl-] | active |
| COc1cnc(SC)n(C)c1=O | inactive |
| C[C@@H]1CN([C@@H](C)CO)C(=O)c2cc(C#Cc3cccnc3)cnc2O[C@@H]1CN(C)S(C)(=O)=O | inactive |
| C/C=C/c1ccc2c(c1)O[C@H](CN(C)C(=O)c1ccc3c(c1)OCO3)[C@@H](C)CN([C@@H](C)CO)S2(=O)=O | inactive |
| COc1ccc(NC(=O)Nc2ccc3c(c2)C(=O)N([C@@H](C)CO)C[C@@H](C)[C@H](CN(C)S(=O)(=O)c2cn(C)cn2)O3)cc1 | inactive |
| C[C@H]1CCCCO[C@@H](CN(C)C(=O)NC2CCCCC2)[C@@H](C)CN([C@@H](C)CO)C(=O)c2cc(NC(=O)c3ccccc3)ccc2O1 | inactive |
| C=CC(C1=CC(=O)C(OC)=CC1=O)c1ccccc1 (centres undefined) | active |
| Cc1noc(C)c1S(=O)(=O)N(C)C[C@@H]1Oc2ccc(NC(=O)c3ccncc3)cc2CC(=O)N([C@@H](C)CO)C[C@@H]1C | inactive |
| COc1ccc(NC(=O)Nc2ccc3c(c2)C(=O)N([C@H](C)CO)C[C@H](C)[C@H](CN(C)S(=O)(=O)c2ccc(C)cc2)OCCCC[C@@H](C)O3)cc1 | inactive |
| Cc1ccccc1-c1ccc2c(c1)O[C@H](CN(C)C(=O)Nc1ccc(C(F)(F)F)cc1)[C@H](C)CN([C@@H](C)CO)S2(=O)=O | active |
| Cc1noc(C)c1NC(=O)Nc1cccc2c1O[C@@H](CN(C)C(=O)NC(C)C)[C@H](C)CN([C@@H](C)CO)C2=O | inactive |
| Oc1ccccc1/N=C/c1ccncc1 | inactive |
| CCCCN(CCCC)[NH2+][O-] | inactive |
| CN1C(=O)c2cc(NC(=O)c3cccs3)ccc2OC[C@H]2O[C@H](CC(=O)NCCN3CCCCC3)CC[C@@H]21 | inactive |
| COc1ccc(NC(=O)Nc2ccc3c(c2)C(=O)N([C@@H](C)CO)C[C@H](C)[C@@H](CN(C)S(=O)(=O)c2cn(C)cn2)O3)cc1 | inactive |
| COc1ccc(S(=O)(=O)N(C)C[C@H]2Oc3cc(C#CC4CC4)ccc3S(=O)(=O)N([C@H](C)CO)C[C@H]2C)cc1 | inactive |
| CC(C)CCC(=O)N1C[C@@H]2c3nc(N4CCOCC4)ncc3CS(=O)(=O)[C@H]2C1 | inactive |
| CN(C)CCCCNC(=O)[C@@H]1C[C@@H]2C(=O)NCC(=O)N2[C@@H]1c1cccc(OCCO)c1 | inactive |
| CC(=O)OCCc1nc(C(=O)NCc2ccc3c(c2)OCO3)cc2c1[C@@H](CCO)N([S@](=O)C(C)(C)C)C2 | inactive |
| Cc1cncc2cccc(S(=O)(=O)N[C@H]3CN[C@H](C(=O)NN)C3)c12 | inactive |
| C[C@H](CO)N1C[C@H](C)[C@H](CN(C)Cc2ccc(Cl)c(Cl)c2)Oc2ccc(NC(=O)Nc3ccc4c(c3)OCO4)cc2CC1=O | active |
| CCc1cn([C@H]2C[C@@H](O)[C@@H](CO)O2)c(=O)[nH]c1=O | inactive |
| COC(=O)CCCCC(=O)c1[nH]c(=O)[nH]c1C | inactive |
| Cc1ccc(S[C@]2(C(=O)NCCN3CCOCC3)CC(=O)N(Cc3cc(C(F)(F)F)cc(C(F)(F)F)c3)[C@@H]2c2ccc(CO)cc2I)cc1 | inactive |
| CCOC(=O)c1c(C)cc(O)c(C=O)c1O | inactive |
| COc1ccccc1C#Cc1ccc2c(c1)O[C@@H](CN(C)Cc1cccnc1)[C@H](C)CN([C@H](C)CO)S2(=O)=O | active |
| C[C@@H]1CN([C@H](C)CO)C(=O)c2cc(NC(=O)Nc3cccc4ccccc34)ccc2O[C@H]1CN(C)S(=O)(=O)c1ccc(F)cc1 | inactive |

Reference: the antibiotic and cytotoxicity screens of Wong et al. (2023)
